Measured values taken from patent US20240392020A1 (JIANGSU HENGRUI PHARMACEUTICALS, published 2024).

B1: Tmab (antibody, human IgG1, kappa)
heavy: QVQLQESGPGLVKPSETLSLTCTVSGFSLIGYDLNWIRQPPGKGLEWIGIIWGDGTTDYNSAVKSRVTISKDTSKNQFSLKLSSVTAADTAVYYCARGGYWYATSYYFDYWGQGTLVTVSS[human IgG1 constant region cut from this listing]
light: DIQMTQSPSSLSASVGDRVTITCRASQSISNNLNWYQQKPGKAPKLLIYYTSRFHSGVPSRFSGSGSGTDFTFTISSLQPEDIATYYCQQEHTLPYTFGQGTKLEIKRTVAAPSVFIFPPSDEQLKSGTASVVCLLNNFYPREAKVQWKVDNALQSGNSQESVTEQDSKDSTYSLSSTLTLSKADYEKHKVYACEVTHQGLSSPVTKSFNRGEC
notes: also called I0
B2: Light chain of I0 (other)
light: B1 light
notes: single antibody chain, co-expressed

What was measured:
hNGF [1] = molecular target: T1, hNGF (human, UniProt P01138 fragment, limits assumed); assay: ELISA
T1 construct: bought

hNGF [2] = molecular target: T1, hNGF; assay: SPR Biacore T200, antibody captured on Protein A chip
T1 sequence (P01138 122-241 limits assumed): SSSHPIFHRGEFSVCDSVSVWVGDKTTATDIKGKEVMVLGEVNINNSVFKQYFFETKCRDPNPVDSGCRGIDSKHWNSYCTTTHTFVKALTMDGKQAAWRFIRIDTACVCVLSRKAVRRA

Heavy chain of D3 = molecular target: T2, Heavy chain of D3; assay: co-expression in HEK293E cells, LC-MS for the mispaired molecule
T2 construct: single antibody chain, co-expressed

Row | EC50 (hNGF [1]) [nM] | Kd (hNGF [2]) [nM] | koff (hNGF [2]) [s⁻¹] | kon (hNGF [2]) [M⁻¹ s⁻¹] | binding result (Heavy chain of D3) | Binder
1 | 1.42 | 0.0621 | 0.000119 | 1.92e+06 |  | B1
2 |  |  |  |  | no binding | B2
